Data published in PubChem BioAssay AID1030 (National Center for Advancing Translational Sciences (NCATS), 2008).
Hit rate of the full screen: of about 220,000 compounds, about 16,000 (7.3%) were called active. This list was built around the results that the source calls inconclusive (neither active nor inactive); the mix of calls is not that of the screen. The call rests on the fitted dose curve; in most records, active means well fitted inhibition curve with a large enough effect (not every such curve was filed as active); inconclusive means small, poorly fitted or top-dose-only effect, or another doubt; inactive means no such curve, though single readings can be large or run the other way. Potencies of inconclusive entries are left out as doubtful fits.

Each compound was assayed against Aldehyde dehydrogenase 1A1 (Homo sapiens) (UniProt P00352) (assay: qHTS Assay for Inhibitors of Aldehyde Dehydrogenase 1 (ALDH1A1)). Details: Purified ALDH1A1, NADH fluorescence, propionaldehyde substrate; series mostly up to 75.3 µM; activity, negative = inhibition: at the top concentration.
Chain of UniProt P00352 (P00352 whole entry, looked up): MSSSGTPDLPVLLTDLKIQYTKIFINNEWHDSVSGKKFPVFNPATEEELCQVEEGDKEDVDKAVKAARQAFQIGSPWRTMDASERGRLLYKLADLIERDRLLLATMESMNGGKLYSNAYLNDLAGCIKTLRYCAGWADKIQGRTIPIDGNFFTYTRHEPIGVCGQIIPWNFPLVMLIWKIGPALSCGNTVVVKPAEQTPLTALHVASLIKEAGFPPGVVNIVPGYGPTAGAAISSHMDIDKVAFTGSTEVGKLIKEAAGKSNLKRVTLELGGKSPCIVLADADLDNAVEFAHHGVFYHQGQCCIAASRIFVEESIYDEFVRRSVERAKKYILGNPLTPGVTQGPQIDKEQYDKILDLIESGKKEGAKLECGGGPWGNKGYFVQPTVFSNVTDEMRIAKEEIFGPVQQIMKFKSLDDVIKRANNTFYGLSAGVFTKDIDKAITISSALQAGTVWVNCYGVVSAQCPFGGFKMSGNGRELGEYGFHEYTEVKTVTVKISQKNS
Potency means the concentration at half of the fitted maximal effect; tags describe the fitted curve by direction and shape.
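Wherever activity, negative = inhibition is given: plate controls were no enzyme wells and a reference inhibitor.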

Question: `CC1CCCCC1NC(=S)NC(=O)c1ccccc1Br` (stereo not drawn) was tested. Which Potency did it give?
Answer: inconclusive [inhibitor, single point]

Question: For `COc1ccc(S(=O)(=O)N2CCN(C(=O)NC3CCCCC3)CC2)cc1OC`, which Potency is on record?
Answer: inconclusive [inhibitor, single point]

Question: Which activity, negative = inhibition does the source give for `CC(=O)[C@H](C(=N)C#N)C(=O)Nc1ccccc1` here?
Answer: inactive: 4.67% [at 13.5 µM]

Question: How did the Potency turn out when `CN(C(=O)CSc1nnnn1-c1ccccc1)C1CCCCC1` was run?
Answer: inconclusive [inhibitor, single point]

Question: Which “activity, negative = inhibition” value does the source give for `Cc1cc(C)cc(OC(=O)CS(=O)c2ccc(C(F)(F)F)cc2[N+](=O)[O-])c1` (stereo not drawn) here?
Answer: inactive: 1.49%

Question: How did the Potency turn out when `Cc1nc2c3cnn(-c4ccc(C)c(C)c4)c3ncn2n1` was run?
Answer: inconclusive [inhibitor, single point]

Question: Which activity, negative = inhibition does the source give for `CN(C)CCSCCO` here?
Answer: inactive: 10.7% [at 13.5 µM]

Question: For `CCOc1ccccc1NC(=O)C(=O)NCCC1=CCCCC1`, which “activity, negative = inhibition” value is on record?
Answer: inactive: -9.89%

Question: How did the Potency turn out when `Cc1cccc(C(=O)O/N=C(/c2ccccc2)c2ccncc2)c1` was run?
Answer: inconclusive [inhibitor, single point]

Question: Which Potency does the source give for `O=C(Oc1cccc2cccnc12)c1ccc(N2C(=O)C3C4CCC(C4)C3C2=O)cc1` (stereo not drawn) here?
Answer: inconclusive [inhibitor, partial curve]

Question: `CCOC(=O)C1(C)C=C(Nc2ccc(C)cc2)C(=O)N1c1ccc(C)cc1` (stereo not drawn) was tested. Which Potency did it give?
Answer: inconclusive [inhibitor, single point]

Question: `COc1ccccc1/C=C/C(=O)NC(=S)Nc1ccc(S(=O)(=O)N(C)c2ccccc2)cc1` was tested. Which Potency did it give?
Answer: active: 28.2 µM

Question: `C=C(C(=O)C(C)(C)O)C(O)c1ccc([N+](=O)[O-])cc1` (stereo not drawn) was tested. Which Potency did it give?
Answer: inconclusive [inhibitor, partial curve]

Question: With `O=C(c1ccc2c(c1)OCO2)N1CCN(C(=O)c2ccco2)CC1` as the compound, how does the Potency read?
Answer: inconclusive [inhibitor, single point]

Question: `COc1ccc(/C=C/c2ccc(=O)n(Cc3ccccc3)n2)cc1` was tested. Which Potency did it give?
Answer: inconclusive [inhibitor, partial curve]

Question: With `CCCOc1ccc(N2C(=O)CC(N3CCCC(C(=O)N4CCCC4)C3)C2=O)cc1` (stereo not drawn) as the compound, how does the Potency read?
Answer: active: 17.8 µM

Question: With `Cc1cccc(NC(=O)CSc2nnc(-c3ccco3)n2CC2CCCO2)n1` (stereo not drawn) as the compound, how does the Potency read?
Answer: inconclusive [inhibitor, single point]

Question: `O=C(O)/C=C/C(=O)Nc1ccc(NC(=O)c2ccccc2)c(Cl)c1` was tested. Which Potency did it give?
Answer: active: 2.24 µM

Question: For `COCCN1C(=O)C(CC(=O)Nc2ccc(C(C)=O)cc2)SC1=Nc1ccccc1` (stereo not drawn), which “activity, negative = inhibition” value is on record?
Answer: inactive: -8.1%

Question: How did the Potency turn out when `CC(=O)N1CCc2cc(N=NC3=C(O)CC(C)(C)CC3=O)ccc21` was run?
Answer: inconclusive [inhibitor, partial curve]

Question: With `Cn1c(CN2CCCC2)nc2cc(NC(=O)COc3ccccc3)ccc21` as the compound, how does the “activity, negative = inhibition” value read?
Answer: inactive: 16.9%

Question: For `O=C1CCC[C@@H](C(C(=O)OCc2ccccc2)C(=O)OCc2ccccc2)C1`, which activity, negative = inhibition is on record?
Answer: inactive: -23.1% [at 13.5 µM]

Question: With `CC(C)COC(=O)/C(C#N)=C/c1c[nH]c2ccccc12` as the compound, how does the Potency read?
Answer: inconclusive [inhibitor, single point]

Question: Which “activity, negative = inhibition” value does the source give for `COc1cc(S(=O)(=O)N2CCN(C)CC2)c(OC)cc1Cl` here?
Answer: inactive: -5.24%

Question: With `CC(C)NS(=O)(=O)c1ccc(OCC(=O)NCc2ccc3c(c2)OCO3)c(Cl)c1` as the compound, how does the Potency read?
Answer: inconclusive [inhibitor, single point]

Question: With `NC(=O)COC(=O)c1cc(Cl)cc(Cl)c1N` as the compound, how does the Potency read?
Answer: inconclusive [inhibitor, partial curve]

Question: For `O=C(c1nn(Cc2ccccc2)c(=O)c2ccccc12)N1CCc2ccccc2C1`, which Potency is on record?
Answer: active: 0.891 µM

Question: `Cc1nnsc1C(=O)Nc1cc(Cl)ccc1Cl` was tested. Which “activity, negative = inhibition” value did it give?
Answer: inactive: 0.961%

Question: `COCCCn1c(=S)[nH]c2sc3c(c2c1=O)CCCS3` was tested. Which Potency did it give?
Answer: active: 25.1 µM

Question: Which Potency does the source give for `CCOC(=O)c1ccccc1NC(=O)c1ccc(NS(C)(=O)=O)cc1` here?
Answer: inconclusive [inhibitor, single point]

Question: Which Potency does the source give for `COc1ccc(C(=O)N2CCC3(CC2)CN(c2ccccn2)C3)cc1` here?
Answer: inconclusive [inhibitor, partial curve]

Question: Which Potency does the source give for `Cn1c(=O)n(C)c2cc(/C=C3/SC(=O)N(CC(=O)N4CCOCC4)C3=O)ccc21` here?
Answer: inconclusive [inhibitor, single point]

Question: For `Cn1nnc2sc3c(c2c1=O)CCCC3`, which Potency is on record?
Answer: active: 12.6 µM

Question: For `CS(=O)(=O)N(CC(=O)Nc1cccc([N+](=O)[O-])c1)c1cccc(F)c1`, which “activity, negative = inhibition” value is on record?
Answer: inactive: 3.06%

Question: `COc1ccccc1NS(=O)(=O)c1cc(NC(=O)c2sccc2C)ccc1N1CCCC1` was tested. Which Potency did it give?
Answer: active: 10 µM

Question: For `C=C1c2ccccc2NC(=S)N1Cc1ccc2c(c1)OCO2`, which “activity, negative = inhibition” value is on record?
Answer: inactive: -11.6%

Question: Which “activity, negative = inhibition” value does the source give for `COc1ccc(C(=O)Nc2sc(C)c(C)c2CN2CC(C)OC(C)C2)cc1` (stereo not drawn) here?
Answer: inactive: -7.75%

Question: For `Oc1ccccc1NCC(O)Cn1ccc2ccccc21` (stereo not drawn), which Potency is on record?
Answer: active: 14.1 µM

Question: `C=CCn1c(SCC(=O)c2ccc(CNC(C)=O)o2)nc2scc(C3CC3)c2c1=O` was tested. Which Potency did it give?
Answer: inconclusive [inhibitor, single point]

Question: For `O=C(Nc1nnc(-c2ccncc2)s1)C1CCCO1` (stereo not drawn), which Potency is on record?
Answer: inconclusive [inhibitor, partial curve]

Question: `CC(=O)Nc1ccc(NC(=O)C(C)OC(=O)/C=C/c2cccs2)cc1` (stereo not drawn) was tested. Which “activity, negative = inhibition” value did it give?
Answer: inactive: -15.6%

Question: For `Cn1c(CN2CCN(CC#N)CC2)c(C#N)c2ccccc21`, which Potency is on record?
Answer: inconclusive [inhibitor, single point]

Question: For `CN(C1CCCC1)C1CCN(C(=O)CNC(=O)/C=C/c2ccccc2)CC1`, which Potency is on record?
Answer: inconclusive [inhibitor, full curve, poor fit]

Question: For `O=C1c2cccnc2C(Nc2ccccc2Br)N1Cc1ccco1` (stereo not drawn), which Potency is on record?
Answer: active: 25.1 µM

Question: Which Potency does the source give for `CC1CCN(S(=O)(=O)c2ccc(C(=O)Nc3sccc3C(N)=O)cc2)CC1` here?
Answer: inconclusive [inhibitor, single point]

Question: Which Potency does the source give for `Cc1ccc(C)c(NC(=O)C(OC(=O)c2ccc(C)s2)c2ccccc2)c1` (stereo not drawn) here?
Answer: inconclusive [inhibitor, single point]

Question: Which “activity, negative = inhibition” value does the source give for `N#Cc1c(-c2ccccc2)nc2n1CCS2` here?
Answer: inactive: 4.37%

Question: Which Potency does the source give for `COc1ccc(/C=C/C(=O)c2ccccc2)cc1Cn1nnc2ccccc21` here?
Answer: inconclusive [inhibitor, single point]
